# The full ranking holds about 33,000 sequences; the median of “E-score (-0.5 to 0.5)” is about -0.013, and the highest 2% start at about 0.3. The list shows a part of the results.
# Target: T1, Msn1 (UniProt P22148)
# T1 sequence: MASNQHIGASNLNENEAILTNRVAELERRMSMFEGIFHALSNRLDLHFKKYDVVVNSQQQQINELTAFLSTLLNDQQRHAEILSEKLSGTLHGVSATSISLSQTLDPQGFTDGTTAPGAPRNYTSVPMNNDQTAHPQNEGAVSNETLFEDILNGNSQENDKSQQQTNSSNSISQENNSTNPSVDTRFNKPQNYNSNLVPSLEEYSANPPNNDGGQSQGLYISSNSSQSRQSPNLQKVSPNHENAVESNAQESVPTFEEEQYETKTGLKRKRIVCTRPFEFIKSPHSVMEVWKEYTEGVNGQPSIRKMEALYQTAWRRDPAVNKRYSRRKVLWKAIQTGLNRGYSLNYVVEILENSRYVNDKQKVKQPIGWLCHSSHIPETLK
# Assay: PBM E-score (8-mer binding enrichment) (E-score (-0.5 to 0.5)); higher = stronger / more preferred TF binding; most listed sequences are background and not binding sites
# Conditions: protein concentration: 200 nM; construct: GST-full length
# Experimental: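 Universal 'all 10-mer' protein binding microarrays (Agilent AMADID 015681) probed with GST-tagged S. cerevisiae TFs (full-length or DBD) made by in vitro transcription/translation (PURExpress), about 100-200 nM. Bound TF was detected with fluorescent anti-GST. Each ungapped 8-mer (which stands for itself and its reverse complement) is scored by the PBM enrichment score (E-score), a modified Wilcoxon-Mann-Whitney statistic from -0.5 to +0.5, computed with the Universal PBM Analysis Suite. Scale: above 0.35 generally sequence-specific binding.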
row,Sequence,PBM E-score
1,GATTACAC,0.00418
2,ACCTTCAC,-0.103
3,ATATTATC,0.0685
4,GCAAGGGA,-0.198
5,AGCGGGTG,-0.199
6,CGGACCCG,-0.0234
7,ACCTCATC,-0.152
8,CGGGCTTA,-0.132
9,CGCATTAC,0.0774
10,GCTGCACC,-0.376
11,AACTGTAA,0.0801
12,CCCGGAAC,0.0746
13,GAGGCCGC,-0.133
14,CTACCATC,-0.244
15,ATCTCATA,-0.0891
16,AGAGCTTA,-0.0381
17,CGTTCGGC,-0.0508
18,AAAAGAGC,-0.0499
19,CGTAACTA,-0.0861
20,ATGTAGGA,-0.0259
21,ATCGACAT,0.279
22,CGGTTTTC,0.0994
23,AGTATATC,0.0949
24,GAAGGCGA,-0.267
25,ATCATACC,0.0673

row,Sequence,PBM E-score
1,GGCTACCC,-0.338
2,GGATCCGA,-0.0542
3,ATTATCTA,0.209
4,AAAAAACA,0.231
5,ACCCGGAC,0.152
6,GTTATGCA,-0.16
7,GACATGTC,0.455
8,CCTGAGAA,-0.0528
9,TCAGTCGA,0.117
10,AAGAAACG,0.0621
11,CCTGCCTA,-0.0808
12,AGTTGTTG,0.0635
13,CAGAGCGG,-0.156
14,ATATACTA,0.116
15,CCCGTGTA,-0.1
16,ATTATGGG,-0.0595
17,CATGACGC,-0.012
18,ACTTCTGC,0.0517
19,ATAGAATA,0.0864
20,AAGGAGGC,-0.336
21,CAAGACCA,-0.135
22,CCCCCTCG,-0.307
23,GTCTGCTA,0.213
24,CAGGAGAG,-0.162
25,AGGGTGTC,-0.134

row,Sequence,PBM E-score
1,CCAAGAGG,-0.25
2,AGAGCAAA,-0.219
3,AGAGATAC,0.0813
4,AAGATATA,0.0934
5,ATCTATCA,0.141
6,CTGCAACA,-0.111
7,CCTGTGTA,0.228
8,AATACTAT,0.0477
9,CCCTCGAC,-0.145
10,CGCGGGGA,0.0222
11,ACCCGTAA,-0.0817
12,GTACGTAC,0.00521
13,GCAAAACA,-0.0693
14,GTCATTCA,0.119
15,ATGACAAG,0.298
16,GACTTGGC,-0.192
17,GAGCCTTA,-0.168
18,CGTCGGCC,-0.107
19,CGCCATAG,-0.219
20,ATAGCACC,-0.134
21,CAGCATAG,-0.0968
22,CAGAGTCG,-0.156
23,AGGTCTTA,-0.0337
24,ATGTAAAG,-0.0428
25,ACGCAATG,0.0218

row,Sequence,PBM E-score
1,CGGCCATA,-0.022
2,CACGGTGA,-0.012
3,CTCGGCGC,0.0354
4,GAGACCTC,-0.0881
5,ACACACGC,0.0548
6,AACCGTGA,-0.0232
7,ACCTCGCA,-0.0893
8,AACAGCAA,0.0783
9,CGCCAAGC,-0.198
10,AAGAGACG,0.147
11,AGTACGCA,-0.215
12,CGGCTCTA,-0.00727
13,AAGGAGTG,-0.146
14,ATGTACCG,0.279
15,ACCAATAT,0.219
16,CAGACTAA,0.146
17,CTTACCCC,-0.24
18,ACTTGTTG,-0.109
19,CTCAGAAA,0.00503
20,CAACAGCA,0.0458
21,AATCATAG,-0.0142
22,ATATTGAA,0.155
23,CAAACGAG,0.099
24,CTCTAATC,-0.0859
25,CACGAGTC,0.0105

row,Sequence,PBM E-score
1,GACCGGAC,0.187
2,CAGCGGAG,-0.259
3,ACCTTCGC,-0.13
4,AGCTGCGA,-0.0645
5,GCCATTCA,-0.00319
6,GCTGATGA,-0.156
7,ATTCTTTG,0.0847
8,ATTAAGGA,0.122
9,CTAGTGAA,-0.0591
10,ATCCCCAC,-0.131
11,ATGTCTTC,0.293
12,CCAGGGAC,0.0428
13,ACCCAAAC,0.174
14,CTTGCGCC,-0.238
15,CAGGTCCA,0.0853
16,CCGACTAC,-0.0814
17,ATCGACGA,-0.0285
18,CACCACTG,-0.0655
19,ACGAAGCG,-0.0822
20,AGTACGTA,0.157
21,CAAAGTGG,-0.24
22,GTGACCGA,-0.0453
23,GACCGACC,0.0347
24,GGTAGACC,-0.148
25,AGCGCCCT,-0.213

row,Sequence,PBM E-score
1,AAGAGGCC,-0.249
2,GTTCGTGA,-0.199
3,AACGGGTC,-0.155
4,AGCAAGAT,0.0426
5,GACGCGAC,-0.0569
6,GTTTTGTA,0.2
7,CTCTTGAC,0.0314
8,CTCCCTTC,-0.387
9,CGTACATA,0.296
10,ACGAGAGG,-0.0785
11,TACTTCTA,0.0186
12,AATACAGA,0.189
13,ACCCGACT,0.0802
14,GCGAATCC,-0.0802
15,AAGCCGAG,0.0736
16,TCTATTCA,0.123
17,AGCGGTCA,-0.0209
18,GGCTGACA,-0.0146
19,CATTCGGC,0.0202
20,ACGGCCTA,-0.0688
21,AAAGGTGG,-0.0633
22,TCCGCGCA,0.18
23,AGATGGCA,-0.0264
24,ACGATTAA,-0.00425
25,ACTCAGAT,-0.0382

row,Sequence,PBM E-score
1,ACCTGAGC,-0.0275
2,CTGCGCGC,0.069
3,GTATTACA,0.0681
4,AACTATCA,0.0801
5,CGGTGCCA,-0.201
6,AAAGCCCG,-0.00367
7,AATTACCG,0.0583
8,AACATTCG,-0.0558
9,GTTCAGAA,-0.0005
10,ACAGACCC,-0.139
11,TACCTGAA,0.0491
12,AACAAGAA,0.0572
13,AGTGGATG,-0.145
14,AATACCAC,-0.0531
15,ATTGCCAG,0.0682
16,AGCACTGC,-0.202
17,AAGTCAGC,0.0995
18,AATTTCGG,0.0993
19,ACTGTCCT,0.151
20,AAATTTTG,0.108
21,ATTTGGCG,-0.151
22,AGACTCGA,-0.00201
23,GGTACCAC,-0.0136
24,ATAGTACC,0.11
25,GCATAAGA,-0.0375

row,Sequence,PBM E-score
1,CTCGGCTA,-0.0716
2,CTCTGGAC,0.0287
3,TTCGCCAA,-0.261
4,CTGGTACC,-0.121
5,ATGCGGAC,0.16
6,CGTCAATA,-0.138
7,ACAGTGAC,0.123
8,CATCGGCG,-0.152
9,GCTTCTCC,-0.267
10,ATAGCGCG,0.0211
11,CCGCCACC,-0.232
12,ACTCTGCG,0.0422
13,ACACTCTG,-0.195
14,TAGCCCAA,0.0745
15,GTGCACAC,-0.0354
16,CAACAAAC,-0.0143
17,CTAATCCA,-0.00748
18,GAACTATC,-0.11
19,CAGAACCG,-0.0856
20,CGCTGTTC,-0.102
21,CTGTTTGA,0.11
22,GACTTCGC,0.181
23,CCCTAGAC,-0.138
24,AGTCCCTG,-0.0264
25,AATGTAGG,-0.11

row,Sequence,PBM E-score
1,AGCTGTGG,-0.061
2,GCGCGAAA,0.176
3,ACCGAACG,0.145
4,CCTAAACG,-0.0151
5,GCTCCCTA,-0.334
6,GCTCGGAA,-0.0373
7,GTAAAAAC,0.091
8,AGTTTTAA,0.224
9,AGGCTACG,-0.204
10,ATGGATCA,-0.0149
11,CCTGTGGC,-0.232
12,AAGCCTGG,-0.122
13,CAAATCCC,-0.0311
14,AACAGGCT,-0.0468
15,CACAAGAC,-0.118
16,CATATCCA,-0.0731
17,CTGTCCGA,0.275
18,AGCACAGC,-0.111
19,AAGAGTAT,-0.0865

# From the supplement of paper PMC3334620
